Measurements taken from the RNAGym collection of RNA variant scans (doi:10.1073/pnas.2313332121).
Variants at the background level are over-represented here.

B1: TPR 5TU (parent)
chain: GGAUCUUCUCGAUCUAACAAAAAAGACAAAUCUGCCACAAAGCUUGAGAGCAUCUUCGGAUGCAGAGGCGGCAGCCUUCGGUGGCGCGAUAGCGCCAACGUUCUCAACUAUGACACGCAAAACGCGUGCUCCGUUGAAUGGAGUUUAUCAUG

Variants of: B1
Assay: polymerase ribozyme fitness, log enrichment relative to wild type (log ratio); higher = more active; in vitro selection for triplet polymerase activity
Summary of the method: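 Libraries of mutants in each subunit of a heterodimeric triplet polymerase ribozyme were generated by PCR and transcribed. In triplicate, each went through one in vitro selection round: annealing with biotinylated primer, partner subunit and triplets; frozen incubation at −7 °C; gel excision of extended constructs; streptavidin-bead capture; RT-PCR. Fitness, taken from Illumina sequencing of input and output libraries, is the logarithm of a genotype's enrichment over wild-type enrichment, averaged across replicates with inverse-variance weights. The logarithm is base 2, and genotypes needed ≥10 input reads and ≥1 read per output to be kept.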

Variant	polymerase ribozyme fitness (log ratio)
GGAUCUUCGCGAUCUAACAAAAAAGACAAAUAUGCCACAAAGCUUGAGAGCAUCAUUGGAUGCAGAGGCGGCAGCCUUCGGUGGCGCGAUAGGGCCAACGUUCUCAACUAUGACACGCAAAACGCGUGCUCCGUUGAAUGGCGUUUACCAUG [U9G C32A U55A C57U C93G A142C U148C]	-4.04
GGAUCUUCGCGAUCUAACAAAAAAGAAAAAUCUGCCACAAAGCUUGAGAGCAUCUUCGGAUGCAGAGUCGGCAGCCUUCGGUCGCGCGAUAGCGCCAACGUUCUCAACUAUGACACGCAAAAAGCGUGCUCUGUUGAAUGGAGUUUAUCAUG [U9G C27A G68U G83C C123A C132U]	≤ -4.2
GGAUCUUCGAGAUCUAACAAAAAAGACAAAUCUGCCACAAAGCUUGAGAGCAUCUUCGGAUGCAGAGGCGGCCGCCUUCGGUGGCGCGAUAGCGCCAACGUUCUCAACGAUGACACGCAAAACGCAUGCUCCGUUGAAUGGAGUUUAUCGUG [U9G C10A A73C U109G G126A A150G]	≤ -4.2
GGAUCUUCGCGAUCUAACAAAAAAGACAAAUCUGCCACGUAGCUUGACAGCAUCUUCGGAUGCAGAGGCGGCAGACUUCGGUGGCGCGAUAGUGCCAACGUUCUCAACUAUGACACGCAAAACGCGUGCUCCGUUGAAUGGAGUUUAUCAUG [U9G A39G A40U G48C C75A C93U]	≤ -4.2
GGAUCUUCGCGAUCUAACAAAAAAGACAAAUCUGCCACAAAACUUGAGAGCAUCUUCGGAUGCAGAGGCGGCAGCCUUCGGUGGCGCGAUAGUGCCAACGUUCUCAACUAUGACACGCACAACGCGUGCUCCGUUGAAUGUAGUUUAUCAUG [U9G G42A C93U A120C G141U]	≤ -4.2
GGAUCUUCGCGAUCUAACAAAAAAGACAAAUCUGCAACACAGCAUGAGAGCAUCUUCGGAUGCAGAGGCGGCAGCCUUCGGUGGCGCGAUAGCGCGUACGUUCUCAACUAUGACACGCAAAACGCGUGCUCCGUUGAAUGGAGUUUAUCAUG [U9G C36A A40C U44A C96G A97U]	≤ -4.2
GGAUCUUCGCGAUCUAACAAAAAAGACAAAUCUGCCACAAAGCUUGAGAGAAUCUUCGGAUGCAGAGGCGGCAGCCUUCGGUGGCGCGAUAGCGCCAACGUUCUCAACUAUGGCACGCAAAACGCGUGCUCCGUUGAAUGGAGUUUAUCAUG [U9G C51A A113G]	≤ -4.2
GGAUCUUCGCGAUCUAACAAAAAAGACAAAUCUGCUACAAAGCUUGAGAGCAUCUUCGGAUGCAGAGGCGGCAGCCUUCGGUGGCGCGAUAGCGCCAACGUUCUCAACUAUGACACGCAAAACGCGUGCUCCGUUGAAUGGAGUUUAUCAUG [U9G C36U]	≤ -4.2
GGAUCUUCGCGAUCUAACAAAAACGACAAAUCUGCCAAAAAGCUUGAGAGCAUCUUCGGAUGCAGAGGCGGCAGCGUUAUGUGGCGCGAUAGCGCCAACGUUCUCAACUAUGACACGCAAAACGCGUGCUCCGUUGAAUGGUGUUUAUCAUG [U9G A24C C38A C76G C79A G80U A142U]	≤ -4.2
GGAUCUUCGCGAUCUAAUAAAAAAGACAAAUCUGCCACAAAGCUGGAAAGCAUCUUCGGAUGCAGAGGCGGCAGCUUUCGGUGGCGCGAUAGCGCCAACGUUCUCAACUAUGACACGCAAAACGCGUGCUCCGUUGAAUGGAGUUUAUCAUG [U9G C18U U45G G48A C76U]	≤ -4.2
GGAUCUUCGCGAUCUAACAAAAAAGACAAAUCUGCCACAAAGCUUGAGAGCAUCUUCGGAUGCAGAGGCGGCAGCCUUCGGUGGCGCGAUAGCGCCAACGUUCUCACCUAUGACACGCAAAACGCGUGCUCCGUUGAAUGGAGUUUAUCAUG [U9G A107C]	≤ -4.2
GGAUCUUCGCGAUCUAACAAAAAAGACUAAUCUGCCACAAAGCUUGAGAGCAUCUUCGGAUGCAGAGGCGGCGGCCUUCGGUGGGGCGAUAGCGCCAACGUUCUCGACUAUGACAAGCAAAACGCGUGCUCCGUUGAAUGGAGUUUAUCAUG [U9G A28U A73G C85G A106G C116A]	≤ -4.2
GGAUCUUCGCGAUCUAACAAAAAAGACAAAUCUGCCACAAACCUGGAGACCAUCUUCGGAUGCAGAGGCGGCAGUCUUCGGUGGCGCGCUAGCGCUAACGUUCUCAACUAUGACACGCAAAACGCGUGCUCCGUUGAAUGGAGUUUAUCAAG [U9G G42C U45G G50C C75U A89C C96U U151A]	≤ -4.2
GGAUCUUCGAGAUCUAACAAAAAAGACAAAUCUGCCACAAAGCUUGAGAGCAUCUUCGAAUGCAGAGGCGGAAGACUUCCGUGGAGCGAUAGCGCCAACGUUCUCAACUAUGACACGCAAAACGCGUGCUCCGUUGAAUGGAGUUUAUCAUG [U9G C10A G59A C72A C75A G80C C85A]	≤ -4.2
GGAUCUUCGCGAUCUAACAAAAAAGACAAAUCUGCUACAAAGCUUGAGAGCAUCUUCGGAUGCAGAGGCGGCAGCAUUCGGUGGCGCGAUAGCACCAACGUUCUCAACUAUGACACGCAAAACGCGUGCUCCGUUGAAUGGAGUUUAUCAUG [U9G C36U C76A G94A]	≤ -4.2
GGAUCUUCGCGAUCUAACAAAAAACACAAAUCUGCCACAAAGCUUGGGAGCAUCUUCGGAUGCAGAGGCGGCAGCCUUCGGUGGCGAGAUAUCGCCAACGUUCUCAACUAUGAAACGCAAAACGCGUGCUCCGUUGAAUGGAGUUUAUCAUG [U9G G25C A47G C87A G92U C114A]	≤ -4.2
GGAUCUUCGCGAUCUAACAAAAAAGACUAAUCUGCCACAAAGCUUGAGAGCAUCUUCGGAUGCAGAGGCGGCAGUCUUCGGUGCCGCGAUAGCGCCAACGUUCGCUACUAUGACACGCAAAACGCGUGCUCCGUUGAAUGGAGAUUAUCAUG [U9G A28U C75U G84C U104G A106U U144A]	≤ -4.2
GGAUCUUCGCGAUCUAACAAAAAAGACAAAUCUGCAACAAAGCUUGAGAGCAUCUUCGGAUGCAGAGGCGGCAGCCUUCGGAGGCGCGAUAGCGCUAACGUUCUCAACUAUGACACGUAAAACGCGUGCUCCGUUGAAUGGAGUUUAUCAUG [U9G C36A U82A C96U C118U]	≤ -4.2
GGAUCUUCGCGAUCUAACAAAAAAGACAAAUCUGCCACAAAGCUUGUGAGCAUCUUCGGAUGCAGCGGCGGCAGCGUUCGGUAGCGCGAUAGCGCCAACGUUCUCCACUAUGACACGCAAAACGCGUGCUCCGUUGAAUGGAGUUUAUCAUG [U9G A47U A66C C76G G83A A106C]	≤ -4.2
